For 31 molecules, binding signal results are on record in paper PMC9911399, “Two distinct binding modes provide the RNA-binding protein RbFox with extraordinary sequence specificity”.

Substitutions are numbered along the chain they refer to; changes in the protein carry UniProt numbers. The list shows a part of the results.

T1: RBFOX1 RRM RbFoxmut (Fox-RRM*) (Homo sapiens, UniProt Q9NWB1 109-208, R118D;E147R;N151S;E152T)
T1 sequence: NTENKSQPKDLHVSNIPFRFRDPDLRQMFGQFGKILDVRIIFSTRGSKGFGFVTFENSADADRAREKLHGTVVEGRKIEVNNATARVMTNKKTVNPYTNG

B1: GAGGGUU (DNA:RNA)
RNA: GGGAGACCGGAAUUCAGAUUGUCCGAGGGUUUUAAAUCCCGUCGUAGCCACCA
DNA 1: CAATCTGAATTCCGGTCTCCC
DNA 2: TGGTGGCTACGACGGGATT
B2: CCGUGAG (DNA:RNA)
RNA: B1 RNA with G25C, A26C, G28U, U30A, U31G
DNA 1: CAATCTGAATTCCGGTCTCCC
DNA 2: TGGTGGCTACGACGGGATT
B3: UAGCCCG (DNA:RNA)
RNA: B1 RNA with G25U, G28C, G29C, U30C, U31G
DNA 1: CAATCTGAATTCCGGTCTCCC
DNA 2: TGGTGGCTACGACGGGATT
B4: AUCGCAU (DNA:RNA)
RNA: B1 RNA with G25A, A26U, G27C, G29C, U30A
DNA 1: CAATCTGAATTCCGGTCTCCC
DNA 2: TGGTGGCTACGACGGGATT
B5: AUACCAC (DNA:RNA)
RNA: GGGAGACCGGAAUUCAGAUUGUCCAUACCACUUAAAUCCCGUCGUAGCCACCA
DNA 1: CAATCTGAATTCCGGTCTCCC
DNA 2: TGGTGGCTACGACGGGATT
B6: CCCACAC (DNA:RNA)
RNA: B5 RNA with A25C, U26C, A27C, C28A
DNA 1: CAATCTGAATTCCGGTCTCCC
DNA 2: TGGTGGCTACGACGGGATT
B7: CGUACAA (DNA:RNA)
RNA: B5 RNA with A25C, U26G, A27U, C28A, C31A
DNA 1: CAATCTGAATTCCGGTCTCCC
DNA 2: TGGTGGCTACGACGGGATT
B8: AUGACUC (DNA:RNA)
RNA: B5 RNA with A27G, C28A, A30U
DNA 1: CAATCTGAATTCCGGTCTCCC
DNA 2: TGGTGGCTACGACGGGATT
B9: UUCUUAG (DNA:RNA)
RNA: B5 RNA with A25U, A27C, C28U, C29U, C31G
DNA 1: CAATCTGAATTCCGGTCTCCC
DNA 2: TGGTGGCTACGACGGGATT
B10: UUUGCAC (DNA:RNA)
RNA: B5 RNA with A25U, A27U, C28G
DNA 1: CAATCTGAATTCCGGTCTCCC
DNA 2: TGGTGGCTACGACGGGATT
B11: ACGACAG (DNA:RNA)
RNA: B5 RNA with U26C, A27G, C28A, C31G
DNA 1: CAATCTGAATTCCGGTCTCCC
DNA 2: TGGTGGCTACGACGGGATT
B12: UUACGGC (DNA:RNA)
RNA: B5 RNA with A25U, C29G, A30G
DNA 1: CAATCTGAATTCCGGTCTCCC
DNA 2: TGGTGGCTACGACGGGATT
B13: AUUCCUU (DNA:RNA)
RNA: B5 RNA with A27U, A30U, C31U
DNA 1: CAATCTGAATTCCGGTCTCCC
DNA 2: TGGTGGCTACGACGGGATT
B14: CAGAACG (DNA:RNA)
RNA: B1 RNA with G25C, G28A, G29A, U30C, U31G
DNA 1: CAATCTGAATTCCGGTCTCCC
DNA 2: TGGTGGCTACGACGGGATT
B15: GUAUUAA (DNA:RNA)
RNA: B5 RNA with A25G, C28U, C29U, C31A
DNA 1: CAATCTGAATTCCGGTCTCCC
DNA 2: TGGTGGCTACGACGGGATT
B16: UCAGCGU (DNA:RNA)
RNA: B5 RNA with A25U, U26C, C28G, A30G, C31U
DNA 1: CAATCTGAATTCCGGTCTCCC
DNA 2: TGGTGGCTACGACGGGATT
B17: AAUACUC (DNA:RNA)
RNA: B5 RNA with U26A, A27U, C28A, A30U
DNA 1: CAATCTGAATTCCGGTCTCCC
DNA 2: TGGTGGCTACGACGGGATT
B18: UCCGGUA (DNA:RNA)
RNA: B1 RNA with G25U, A26C, G27C, U31A
DNA 1: CAATCTGAATTCCGGTCTCCC
DNA 2: TGGTGGCTACGACGGGATT
B19: CAGAACC (DNA:RNA)
RNA: B1 RNA with G25C, G28A, G29A, U30C, U31C
DNA 1: CAATCTGAATTCCGGTCTCCC
DNA 2: TGGTGGCTACGACGGGATT
B20: CACACUG (DNA:RNA)
RNA: B1 RNA with G25C, G27C, G28A, G29C, U31G
DNA 1: CAATCTGAATTCCGGTCTCCC
DNA 2: TGGTGGCTACGACGGGATT
B21: CUUGGAC (DNA:RNA)
RNA: B5 RNA with A25C, A27U, C28G, C29G
DNA 1: CAATCTGAATTCCGGTCTCCC
DNA 2: TGGTGGCTACGACGGGATT
B22: GCCGCAG (DNA:RNA)
RNA: B5 RNA with A25G, U26C, A27C, C28G, C31G
DNA 1: CAATCTGAATTCCGGTCTCCC
DNA 2: TGGTGGCTACGACGGGATT
B23: UAGGCUA (DNA:RNA)
RNA: B1 RNA with G25U, G29C, U31A
DNA 1: CAATCTGAATTCCGGTCTCCC
DNA 2: TGGTGGCTACGACGGGATT
B24: AGGUUAA (DNA:RNA)
RNA: B5 RNA with U26G, A27G, C28U, C29U, C31A
DNA 1: CAATCTGAATTCCGGTCTCCC
DNA 2: TGGTGGCTACGACGGGATT
B25: UACAUGC (DNA:RNA)
RNA: B5 RNA with A25U, U26A, A27C, C28A, C29U, A30G
DNA 1: CAATCTGAATTCCGGTCTCCC
DNA 2: TGGTGGCTACGACGGGATT
B26: AUGCCUA (DNA:RNA)
RNA: B5 RNA with A27G, A30U, C31A
DNA 1: CAATCTGAATTCCGGTCTCCC
DNA 2: TGGTGGCTACGACGGGATT
B27: UGUAGUU (DNA:RNA)
RNA: B1 RNA with G25U, A26G, G27U, G28A
DNA 1: CAATCTGAATTCCGGTCTCCC
DNA 2: TGGTGGCTACGACGGGATT
B28: AACACAA (DNA:RNA)
RNA: B5 RNA with U26A, A27C, C28A, C31A
DNA 1: CAATCTGAATTCCGGTCTCCC
DNA 2: TGGTGGCTACGACGGGATT
B29: AGCUGUA (DNA:RNA)
RNA: B1 RNA with G25A, A26G, G27C, G28U, U31A
DNA 1: CAATCTGAATTCCGGTCTCCC
DNA 2: TGGTGGCTACGACGGGATT
B30: AGCCCUC (DNA:RNA)
RNA: B5 RNA with U26G, A27C, A30U
DNA 1: CAATCTGAATTCCGGTCTCCC
DNA 2: TGGTGGCTACGACGGGATT
B31: ACAAGCA (DNA:RNA)
RNA: B5 RNA with U26C, C28A, C29G, A30C, C31A
DNA 1: CAATCTGAATTCCGGTCTCCC
DNA 2: TGGTGGCTACGACGGGATT

The assay concerns the target T1, RBFOX1 RRM RbFoxmut (Fox-RRM*). In words: EMSA; HiTS-Eq, 1 nM pool, 10 min; buffer printed only for the single-RNA assays: 10 mM Tris pH 7.5, 150 mM NaCl, 3.4 mM EDTA, 0.001% NP-40, 30 C. To be noted: tags: His6 N-terminal (pET28a); label: 5' 32P. The essentials:
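Purified RbFox RRM (wild type or mutant) was equilibrated for 10 min in 50 µL with 1 nM of a 5′-radiolabelled pool of RNA with 7 randomized nucleotides, its flanks annealed to DNA oligonucleotides, across increasing protein concentrations. Free RNA was separated by 8% native PAGE, excised, reverse-transcribed, PCR-barcoded and sequenced on an Illumina HiSeq 2500. Relative association constants came from read-count changes of each variant against the control reaction, normalised to the cognate motif.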
(In general: In EMSA bound probe runs differently from free probe, usually more slowly.)
In the case of B1, the binding signal was 0.0844 KA relative to UGCAUGU.

With B2, the binding signal is 0.108 KA relative to UGCAUGU.

Consider B3, for which the binding signal was 0.0987 KA relative to UGCAUGU.

Consider B4, for which the binding signal is 0.126 KA relative to UGCAUGU.

For the molecule B5, the binding signal was 0.106 KA relative to UGCAUGU.

On to B6, for which the binding signal is 0.0754 KA relative to UGCAUGU.

B7: the binding signal is 0.0599 KA relative to UGCAUGU.

With B8, the binding signal was 0.0778 KA relative to UGCAUGU.

As for B9, the binding signal was 0.135 KA relative to UGCAUGU.

In the case of B10, the binding signal was 0.0972 KA relative to UGCAUGU.

Regarding B11, the binding signal is 0.0704 KA relative to UGCAUGU.

As for B12, the binding signal is 0.0823 KA relative to UGCAUGU.

Regarding B13, the binding signal is 0.0786 KA relative to UGCAUGU.

As for B14, the binding signal was 0.168 KA relative to UGCAUGU.

On to B15, for which the binding signal is 0.125 KA relative to UGCAUGU.

For B16, the binding signal was 0.101 KA relative to UGCAUGU.

B17: the binding signal is 0.0499 KA relative to UGCAUGU.

For the molecule B18, the binding signal was 0.113 KA relative to UGCAUGU.

On to B19, for which the binding signal is 0.0612 KA relative to UGCAUGU.

For the molecule B20, the binding signal was 0.105 KA relative to UGCAUGU.

On to B21, for which the binding signal was 0.0782 KA relative to UGCAUGU.

Consider B22, for which the binding signal is 0.094 KA relative to UGCAUGU.

In the case of B23, the binding signal is 0.115 KA relative to UGCAUGU.

Turning to B24, the binding signal was 0.0956 KA relative to UGCAUGU.

With B25, the binding signal is 0.0766 KA relative to UGCAUGU.

With B26, the binding signal was 0.0874 KA relative to UGCAUGU.

On to B27, for which the binding signal is 0.144 KA relative to UGCAUGU.

Regarding B28, the binding signal was 0.0832 KA relative to UGCAUGU.

For the molecule B29, the binding signal was 0.163 KA relative to UGCAUGU.

Turning to B30, the binding signal was 0.0675 KA relative to UGCAUGU.

Turning to B31, the binding signal was 0.127 KA relative to UGCAUGU.
